# Test results from PubChem BioAssay AID1745845 (National Center for Advancing Translational Sciences (NCATS), 2022).
# Among all 360,000 compounds or so, about 2,600 (0.72%) were called active. The shares of active, inactive and inconclusive entries below differ from those in the screen. Calls follow the shape of the dose curve; as a rule, active = well fitted inhibition curve with a large enough effect; inconclusive = small, poorly fitted or top-dose-only effect; inactive = no such curve, though single readings can be large or run the other way. Potencies beside an inconclusive call are fits to weak or partial responses and may not hold up.
# Assay: Primary qHTS for Inhibitors of ATXN expression; also: nearly all actives have a fitted effect of over 55% in size
# Conditions: HEK-293 ATXN2-luciferase reporter, luminescence, 24 h; activity change, negative = inhibition: at 57 µM (top of the series)
# Procedure, shortened: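 ATXN2-luciferase reporter cells (luciferase flanked by upstream and downstream ATXN2 gene portions) were treated 24 h at 37 °C with compounds at up to 57 uM. SteadyGlo luminescence gave expression; GF-AFC fluorescence gave viability.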
# % is scaled to controls: 0 for no effect and ±100 for the full control effect; potency is read from the fitted curve at half-maximal effect; tags tell the direction and shape of the fitted curve.
SMILES,Potency,"activity change, negative = inhibition"
COc1ccc(C(=O)N(Cc2nc(-c3ccc(C)cc3)no2)C2CCCCC2)cc1OC,inactive,–
Fc1ccc(CN2CCN(c3ncnc4scc(-c5ccccc5)c34)CC2)cc1,"inconclusive: 28.2 µM [inhibitor, single point]",–
CC(=O)N1CCCc2cc(S(=O)(=O)N3CCCC(C(=O)Nc4ccc(C)c(F)c4)C3)ccc21 (configuration not stated),"inconclusive: 20 µM [inhibitor, partial curve, poor fit]",–
CCOc1ccc(NC(=O)Cn2c(=O)n(-c3ccccc3)c(=O)c3c4c(sc32)CCCC4)cc1,inactive,–
O=C(NC(=S)NCc1nc2ccccc2[nH]1)c1ccc(F)cc1,"inconclusive: 15 µM [inhibitor, single point]",–
CCOCCCNC(=S)N1CCN(c2nc(-c3ccc(F)cc3)cs2)CC1,"inconclusive: 7.08 µM [inhibitor, partial curve]",–
Cc1ccc(C)c(OCCC(=O)OCC(=O)Nc2cc(S(=O)(=O)N3CCCCC3)ccc2C)c1,inactive,–
Cc1nc2c(o1)C(=O)c1ccccc1C2=Nc1ccccc1,active: 28.2 µM,–
ON=C1c2cc(OCCN3CCCCC3)ccc2-c2ccc(OCCN3CCCCC3)cc21,"inconclusive: 37.7 µM [inhibitor, single point]",–
COc1cc(C(C)C)c(Oc2cnc(NC(CO)CO)nc2N)cc1I,active: 24.3 µM,–
CC(C)(C)c1ccc(C(=O)Nc2nnc3n2CCS3)cc1,"inconclusive: 22.4 µM [inhibitor, single point]",–
CCN(C(=O)COC(=O)/C(=C/c1ccccc1)NC(C)=O)c1c(N)n(Cc2ccccc2)c(=O)[nH]c1=O,inactive,–
CC(C)(C)Nc1nc(N2CCCC2)nc(N2CCCC2)n1,"inconclusive: 20 µM [inhibitor, partial curve, poor fit]",–
CCc1ccc(C(=O)/C=C/c2ccc([N+](=O)[O-])o2)cc1,"inconclusive: 39.8 µM [inhibitor, single point]",–
Cc1ccc(NC(=O)C2COc3ccccc3O2)cc1C (configuration not stated),"inconclusive: 39.8 µM [inhibitor, single point]",–
CCCOc1ccc(C(=O)C(CCC(CNCC)C(=O)c2ccc(OCCC)cc2)CNCC)cc1 (configuration not stated),active: 17.8 µM,–
CCOC(=O)c1cc2[nH]c3ccccc3c2[n+](-c2ccc([N+](=O)[O-])cc2)c1C,"inconclusive: 14.1 µM [inhibitor, partial curve, poor fit]",–
Cc1cccn2c(=O)c(C=NCc3ccco3)c(Nc3ccc(SC(F)F)cc3)nc12,"inconclusive: 22.4 µM [inhibitor, single point]",–
O=C1COc2ccc(C(=O)CSc3nc4ccccc4c(=O)n3-c3ccc(Cl)c(Cl)c3)cc2N1,"inconclusive: 37.7 µM [inhibitor, single point]",–
CCOc1cccc(/C=N/Nc2ccc(S(=O)(=O)N(CC)CC)cn2)c1O,"inconclusive: 3.16 µM [inhibitor, partial curve, poor fit]",–
Cc1cccc(CSc2nnc([C@@H]3CCCN3)o2)c1,inactive,–
Cc1c(C(C)C)c(=O)n(-c2ccc(S(=O)(=O)NC3CCCCC3)cc2)n1C,"inconclusive: 39.8 µM [inhibitor, partial curve, poor fit]",–
CC(C)(C)c1ccccc1OCCCCN1CCCC1,inactive,–

SMILES,Potency,"activity change, negative = inhibition"
COc1ccc(/C=C/C(=O)Nc2ccc3nc4n(c(=O)c3c2)CCCC4)cc1,"inconclusive: 0.947 µM [inhibitor, full curve, poor fit]",–
CCN1CCN(C(=O)C2CCN(C(=O)c3cc4sccc4n3CC)CC2)CC1,inactive,–
C=CCC[C@@H](Cc1ccc(F)cc1)C(=O)OC[C@@H](NC(=O)[C@H](CC=C)CC(=O)N(CCO)Cc1ccccc1)c1ccccc1,"inconclusive: 39.8 µM [inhibitor, single point]",–
COc1ccc(-c2cc(C(F)(F)F)nc(SCC(=O)N(C)Cc3ccccc3)n2)cc1,inactive,–
N#CC1=C(N)N2C(=C(C#N)C1c1ccc(Br)cc1)Nc1ccccc12 (configuration not stated),"inconclusive: 11.2 µM [inhibitor, partial curve, poor fit]",–
Cc1ccc(-c2nn(-c3ccccc3)cc2CSC(=N)N)cc1,"inconclusive: 31.6 µM [inhibitor, single point]",–
CCCC(c1nnnn1Cc1ccc(OC)cc1)N1CCC(C(N)=O)CC1 (configuration not stated),inactive,–
Cc1cccc(NC(=O)c2ccc(Cn3nc(N4CCN(c5ccccc5)CC4)ccc3=O)o2)c1C,"inconclusive: 22.4 µM [inhibitor, partial curve]",–
COc1ccc(Cl)cc1NC(=O)CN(C)C(=O)c1cn(-c2ccccc2)nc1-c1cccnc1,inactive,–
O=C1NC[C@@H](Cc2cccc3ccccc23)N(CCc2cc(C(F)(F)F)cc(C(F)(F)F)c2)C1=O,"inconclusive: 31.6 µM [inhibitor, single point]",–
COc1cccc2c1C(=O)c1c(O)c3c(c(O)c1C2=O)CC(O)(C(C)=O)CC3OC1CC(N(C)C)C(O)C(C)O1 (configuration not stated),"inconclusive: 0.67 µM [inhibitor, full curve, poor fit]",–
COc1ccc(CCCCCCOCc2ccccc2)cc1,inactive,–
N#CC1=C(N)C(C#N)(C#N)C(c2cccnc2)C2CC(c3ccccc3)CC=C12 (configuration not stated),inactive,–
Nc1ccc(-c2nc3ccc(N)cc3s2)cc1,active: 20 µM,–
CC(=O)Nc1ccc(CNc2nc3cc(-c4ccccc4C)sc3c(=O)n2C)cc1,"inconclusive: 39.8 µM [inhibitor, single point]",–
COc1cc(-c2coc3c(C(=O)NCc4ccc(C(F)(F)F)cc4)cccc23)ccc1O,"inconclusive: 31.6 µM [inhibitor, single point]",–
CCOc1ccc(C2CC=C(C(C)=O)CN2S(=O)(=O)c2ccc(C)cc2)cc1 (configuration not stated),inactive,–
CCC1CCCCN1S(=O)(=O)c1ccc(C(=O)Nc2nnc(-c3cccs3)o2)cc1 (configuration not stated),"inconclusive: 17.8 µM [inhibitor, partial curve]",–
CC(=O)N1CC2(CC(c3ccc(Cl)cc3Cl)=NO2)CN1c1cccc(Cl)c1 (configuration not stated),"inconclusive: 39.8 µM [inhibitor, single point]",–
Cc1ccc(Cl)cc1N1CCN(C(=O)c2cn(C)c(=O)c3c2c2ccccc2n3C)CC1,"inconclusive: 35.5 µM [inhibitor, single point]",–
COc1ccc(Cl)cc1-c1nc(-c2ccncc2)no1,inactive,–
CC(C)(C)OC(=O)[C@H](CCCCN)NC(=O)c1[nH]cnc1C(=O)N[C@@H](Cc1ccccc1)C(=O)OCc1ccccc1,"inconclusive: 25.1 µM [inhibitor, partial curve, poor fit]",–
Oc1ccc(N2CCN(Cc3cc4c(cc3Br)OCCO4)CC2)cc1,–,inconclusive: -43.4% [inhibitor]

SMILES,Potency,"activity change, negative = inhibition"
Cc1ccc2nc(-c3cccc(-c4cccc(Cl)c4)c3)c(NCc3ccccc3)n2c1,"inconclusive: 39.8 µM [inhibitor, single point]",–
C[C@@]12CCC=C[C@H]1[C@H](c1ccc3ccccc3c1Br)N(Cc1ccccc1)C2=O,"inconclusive: 31.6 µM [inhibitor, single point]",–
NC(=S)N=Nc1c(O)n(Cc2ccc(Br)cc2)c2ccccc12,"inconclusive: 7.94 µM [inhibitor, partial curve, poor fit]",–
Cc1ccc(OCC(=O)Nc2ccc3c(c2)nc2n3CCOC2)cc1,inactive,–
Cc1oc2c(c1C(=O)N1CCC(C)CC1)C(=O)c1ccccc1C2=O,active: 25.1 µM,–
CCn1cc(CNC(=O)c2cc(COc3ccc(F)cc3Cl)on2)cn1,"inconclusive: 22.4 µM [inhibitor, single point]",–
Cc1ccc(NC(=O)c2cncc(Br)c2)cc1S(=O)(=O)N(C)C,inactive,–
CCOC(=O)c1nnc(-c2ccccc2)nc1Oc1ccc(Cl)cc1,"inconclusive: 31.6 µM [inhibitor, single point]",–
COc1ccccc1-c1cc2nc(C)c(CCC(=O)NCc3ccc(F)cc3)c(C)n2n1,inactive,–
Cc1cc(N2C(=O)C(O)=C(C(=O)c3cc4ccccc4o3)C2c2ccc(Cl)cc2)no1 (configuration not stated),inactive,–
CS(=O)(=O)c1nc(S(=O)(=O)c2ccc(Cl)cc2)c(N2CCOCC2)s1,inactive,–
CC(Nc1nc(-c2ccc(F)cc2)cs1)c1nc2cc(Cl)c(N3CCCCC3)cc2n1CCCO (configuration not stated),"inconclusive: 28.2 µM [inhibitor, single point]",–
CC(=O)N1C[C@H]2CON(C)[C@H]2C[C@H]1c1cccc(-c2cc(Cl)cc(Cl)c2)c1,"inconclusive: 31.6 µM [inhibitor, partial curve, poor fit]",–
CC(=O)c1ccccc1OCC(O)CN1CCN(CCN2C(=O)c3cccc4cccc(c34)C2=O)CC1 (configuration not stated),"inconclusive: 37.7 µM [inhibitor, single point]",–
c1ccc(C(O[C@H]2CCCN(CCc3ccc4c(c3)OCO4)C2)c2ccccc2)cc1,"inconclusive: 28.2 µM [inhibitor, partial curve]",–
CC(Sc1nccn1C)C(=O)c1c(N)n(C)c(=O)n(C)c1=O (configuration not stated),inactive,–
Cc1ccc(NC(=O)c2c(C)oc3ccc(O)c(CN4CCCC4)c23)c(C)c1,inactive,–
CCOc1ccc(C2C(C(=O)OC)=C(C)NC3=C2C(=O)c2ccccc23)cc1OC (configuration not stated),inactive,–
Cc1ccc2nc(-c3cc(N)cc(N)c3)oc2c1,"inconclusive: 31.6 µM [inhibitor, single point]",–
CCOC(=O)Cc1ccc(NC(=O)n2ncc3cc(Cl)ccc32)cc1,active: 20 µM,–
COc1ccc(CCNc2cc(N3CCN(C(=O)c4ccccc4OC)CC3)ccc2[N+](=O)[O-])cc1OC,"inconclusive: 5.01 µM [inhibitor, partial curve]",–
